Data taken from PubChem BioAssay AID1645887 (National Center for Advancing Translational Sciences (NCATS), 2021).
Where “and” joins values, the source holds several entries; their conditions need not be identical. Equal values may be shown once. Hit rate of the full screen: of about 16,000 compounds, about 40 (0.2%) were called active. Another 1% or so got no clear call; they are omitted. The call rests on the fitted dose curve; in most records, active means well fitted activation curve with a large enough effect; inconclusive means small, poorly fitted or top-dose-only effect, or another doubt; inactive means no such curve, though single readings can be large or run the other way. The list shows a part of the results.

These compounds were tested against Rap guanine nucleotide exchange factor 4 (Homo sapiens) (UniProt Q8WZA2) (assay: Validation qHTS for agonist of cAMP-regulated guanine nucleotide exchange factor 4 (EPAC2)). Settings: EPAC2 Rap1B BODIPY-GDP exchange, fluorescence; activation: hits give high values.
UniProt Q8WZA2, sequence (Q8WZA2 whole entry, looked up): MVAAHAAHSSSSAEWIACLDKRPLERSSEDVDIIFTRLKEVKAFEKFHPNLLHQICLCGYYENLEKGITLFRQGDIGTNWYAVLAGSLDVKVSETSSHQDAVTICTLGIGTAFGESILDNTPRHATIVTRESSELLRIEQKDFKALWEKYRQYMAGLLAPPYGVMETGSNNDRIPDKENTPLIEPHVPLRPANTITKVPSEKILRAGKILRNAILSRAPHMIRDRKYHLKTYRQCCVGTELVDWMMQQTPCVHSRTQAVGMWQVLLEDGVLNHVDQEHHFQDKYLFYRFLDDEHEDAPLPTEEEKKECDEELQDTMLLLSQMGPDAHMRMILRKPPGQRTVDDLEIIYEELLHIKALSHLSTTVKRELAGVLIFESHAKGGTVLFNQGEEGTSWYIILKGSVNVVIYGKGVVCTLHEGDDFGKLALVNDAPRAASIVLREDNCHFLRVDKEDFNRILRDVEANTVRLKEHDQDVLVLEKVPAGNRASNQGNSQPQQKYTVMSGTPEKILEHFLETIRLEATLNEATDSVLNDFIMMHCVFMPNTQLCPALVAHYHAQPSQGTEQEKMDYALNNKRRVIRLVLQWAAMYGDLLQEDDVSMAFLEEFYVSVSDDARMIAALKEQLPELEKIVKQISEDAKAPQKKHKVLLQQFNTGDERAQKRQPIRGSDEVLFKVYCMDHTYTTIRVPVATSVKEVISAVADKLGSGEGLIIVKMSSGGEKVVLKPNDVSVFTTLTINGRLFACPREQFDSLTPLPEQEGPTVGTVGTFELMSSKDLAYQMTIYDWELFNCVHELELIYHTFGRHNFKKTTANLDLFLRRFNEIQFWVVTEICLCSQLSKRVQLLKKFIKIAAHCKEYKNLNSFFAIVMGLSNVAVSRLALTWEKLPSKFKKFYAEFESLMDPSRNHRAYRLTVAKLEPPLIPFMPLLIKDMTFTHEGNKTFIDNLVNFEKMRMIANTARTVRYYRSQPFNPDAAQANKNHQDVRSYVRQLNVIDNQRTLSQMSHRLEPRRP
Procedure, shortened: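 Fluorescent exchange assay: 100 nM EPAC2 with 250 nM RAP1B-BODIPY-GDP and 50 uM GDP; compound added, 5 min at room temperature, then read (ex 480/em 540 nm) every 5 min for 30 min. Normalized to 6.5 mM cAMP agonist control.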
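Further: exchange makes BODIPY-GDP fluorescence drop when released from Rap1B; series mostly up to about 150 µM.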
On the % scale 0 is the no-effect control and ±100 the full control effect.

activation, inactive:
Cc1cc2c3c(cccc3n1)C(=O)c1ccccc1-2 -10.7%, COP(=O)(OC)OC(c1ccc(Cl)cc1)P(=O)(OC)OC (stereo not drawn) -35.9%, CC(CN(C)C)CN1c2ccccc2CCc2ccccc21 (stereo not drawn) 2.83% and -21.3% and -21.9%, CCCC(O)C(CC)CO (stereo not drawn) -0.449%, COc1ccc(CN2CCC(n3cc(C(=O)N4CCCCC4)nn3)CC2)c(OC)c1 0.0126%, Cc1noc(C)c1-c1nccc(Nc2ccc(F)cc2)n1 -6.57%, NC(=O)c1cc[n+](CC2=C(C(=O)O)N3C(=O)C(NC(=O)C(c4ccccc4)S(=O)(=O)[O-])C3SC2)cc1 (stereo not drawn) -5.54%, COc1ccc(-n2c(=O)cnc3cnc(N4CCOCC4)nc32)cc1 -4.77%, O=C(NCCN1CCOCC1)c1cnn(-c2ncc3c(n2)-c2ccccc2CC3)c1C1CC1 -8.97%, NC(=O)c1ccccc1 -41.7%, COc1ccccc1C1CN(Cc2cccnc2)Cc2ccccc2O1 (stereo not drawn) -6.66%, O=C(c1csnn1)N1CCC2(CCCN(Cc3cc(C(F)(F)F)cc(C(F)(F)F)c3)C2)CC1 -5.92%, O=c1cnc2cnc(N3CCOCC3)nc2n1CCc1ccccc1 -3.61%, O=C(Nc1cccc(F)c1)N1CC2(CCN(C(=O)c3cccc(F)c3)CC2)C1 -6.91%, COCCn1c(=O)c(-c2cn(C)c3ccccc23)nc2cncnc21 3.9%, CC(=O)OC1CC2C(C)(C)C(=O)CC[C@]2(C)C2CC[C@@]3(C)C(c4ccoc4)OC(=O)C4OC43[C@]12C (stereo partly drawn) 7.16%, C=C1C2CC[C@@]3(C)C(c4ccoc4)OC(=O)C[C@@]13OC1CC(O)C(C)(C)C(CC(=O)OC)[C@@]12C (stereo partly drawn) -22.9% and -14.9%, CCCCCCCCCCCCCCCC(=O)N[C@H](CN1CCOCC1)[C@H](O)c1ccccc1 -40.1%, Cc1ccnc2ccc(I)cc12 -12.5%, COc1ccccc1CNc1ncncc1-c1cccc(C#N)c1 -24.3%, Cn1nccc1C(=O)NCC1CCC2(CCN(Cc3cccc4ncccc34)CC2)O1 (stereo not drawn) -1.94%, CC1(C)O[C@@H]2C[C@H]3[C@@H]4C[C@H](F)C5=CC(=O)C=C[C@]5(C)[C@H]4[C@@H](O)C[C@]3(C)[C@]2(C(=O)CO)O1 8.81%, COC(=O)[C@@H]1C[C@@H](NC(=O)c2cccc3c(C)c(C)[nH]c23)CN1Cc1cccc2ccccc12 -9.49%
